Hit rate of the full screen: of about 310,000 compounds, about 14,000 (4.5%) showed an effect of 50% or more. Effects have a minus sign here. Some of the results follow.
target: human ether-à-go-go-related gene (hERG) potassium channel (human, UniProt Q12809); assay: primary screen, population patch clamp on CHO cells stably expressing hERG
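Further: peak tail current of the secondary pulse compared with the same well before compound.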

Chain of human ether-à-go-go-related gene (hERG) potassium channel (Q12809 whole entry, looked up): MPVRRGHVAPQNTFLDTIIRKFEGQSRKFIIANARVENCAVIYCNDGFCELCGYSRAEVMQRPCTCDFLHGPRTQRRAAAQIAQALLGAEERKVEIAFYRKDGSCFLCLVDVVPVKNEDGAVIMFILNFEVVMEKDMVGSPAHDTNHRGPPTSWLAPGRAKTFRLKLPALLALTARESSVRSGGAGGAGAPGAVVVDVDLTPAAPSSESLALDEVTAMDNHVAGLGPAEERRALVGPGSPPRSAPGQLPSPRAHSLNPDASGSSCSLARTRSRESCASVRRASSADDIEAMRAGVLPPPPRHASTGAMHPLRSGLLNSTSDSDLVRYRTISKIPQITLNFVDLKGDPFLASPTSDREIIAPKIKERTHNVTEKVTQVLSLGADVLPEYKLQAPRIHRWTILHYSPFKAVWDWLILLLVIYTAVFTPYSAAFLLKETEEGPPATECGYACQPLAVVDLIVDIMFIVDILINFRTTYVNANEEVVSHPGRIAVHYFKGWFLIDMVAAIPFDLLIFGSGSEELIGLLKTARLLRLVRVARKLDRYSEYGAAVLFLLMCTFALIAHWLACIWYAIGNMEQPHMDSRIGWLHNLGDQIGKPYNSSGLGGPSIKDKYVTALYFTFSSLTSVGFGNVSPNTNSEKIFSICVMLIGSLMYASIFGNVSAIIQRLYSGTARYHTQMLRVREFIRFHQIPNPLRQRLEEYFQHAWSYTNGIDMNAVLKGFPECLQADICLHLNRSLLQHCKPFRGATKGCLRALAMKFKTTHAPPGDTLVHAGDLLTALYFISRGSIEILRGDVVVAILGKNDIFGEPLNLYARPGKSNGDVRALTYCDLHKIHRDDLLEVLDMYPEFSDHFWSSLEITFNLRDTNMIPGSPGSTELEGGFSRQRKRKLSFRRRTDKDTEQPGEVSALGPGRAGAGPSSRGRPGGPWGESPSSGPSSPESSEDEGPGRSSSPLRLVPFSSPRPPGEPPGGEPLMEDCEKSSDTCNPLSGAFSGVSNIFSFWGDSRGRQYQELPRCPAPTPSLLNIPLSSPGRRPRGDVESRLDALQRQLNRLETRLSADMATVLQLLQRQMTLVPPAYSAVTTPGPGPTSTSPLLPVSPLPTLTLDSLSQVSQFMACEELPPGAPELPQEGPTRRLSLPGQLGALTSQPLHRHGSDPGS

| SMILES | hERG current change (%, negative = inhibition) at 10uM |
| --- | --- |
| CC(C)[C@H](NC(=O)N1CC(=O)Nc2ccccc21)C(=O)N1CCC[C@@H]1C(=O)O | 8.41% |
| O=C(Nc1ccc(F)cc1)c1ccc2nc[nH]c2c1 | 11.4% |
| COC(=O)/C=C(\Oc1ccccc1)C1(O)CCCCC1 | 11.6% |
| Cc1cccc(NC(=O)c2cc(S(=O)(=O)N3CCCCC3)c[nH]2)c1C | 12.4% |
| COC(=O)CSc1ccc(S(=O)(=O)N2CCCCCC2)cc1[N+](=O)[O-] | 23.7% |
| Cc1ncccc1C(=O)N1CCCC(CNC(=O)C2(c3ccc(Cl)cc3)CC2)C1 (stereo not shown) | 11.2% |
| CCOC(=O)/C(=C/Nc1ccccc1)[N+](=O)[O-] | 8.7% |
| O=[N+]([O-])c1ccc(N/N=C/c2cccs2)nc1 | 13.8% |
| O=C(O)c1sc2cc(C(F)(F)F)cnc2c1-c1cccs1 | -1.86% |
| CC(=O)NCC(=O)OC(C(=O)c1ccccc1)c1ccc(Cl)cc1 (stereo not shown) | -8.87% |
| COc1ccc(/C=N/NC(=O)c2cccc(S(=O)(=O)N3CCCC3)c2)cc1O | -20.3% |
| COc1ccccc1NC(=O)CN(c1ccc([N+](=O)[O-])cc1)S(=O)(=O)c1ccccc1 | -11.6% |
| CC1(c2ccccc2)NC(=O)N(CC(=O)Nc2cccc(C#N)c2)C1=O (stereo not shown) | 3.1% |
| COCC1CCN(C(=O)c2cc(COc3ccc4ncccc4c3)on2)CC1 | 8.36% |
| O=C(O)c1ccc(NC(=S)NC(=O)c2cncc(Br)c2)cc1 | 20.1% |
| O=C1C2C3c4ccccc4C(c4ccccc43)C2C(=O)N1Cc1cccnc1 (stereo not shown) | -14.7% |
| CCc1c(C#N)c(SCc2c(C)noc2C)nc2c1C(=O)CC(C)(C)C2 | -10.8% |
| O=C(c1cc2ccccc2oc1=O)N1CCSC1c1ccco1 (stereo not shown) | 4.13% |
| O=C(Nc1ccon1)c1cc2c(s1)CCCCCC2 | -7.56% |
| CC1CCN(C(=O)CCNS(=O)(=O)c2ccc3c(c2)c(=O)n(C)c(=O)n3C)CC1 | 3.47% |
| O=C1c2cc(O)c(O)cc2S(=O)(=O)C1c1ccccc1 (stereo not shown) | 15.1% |
| O=C(COc1ccc(Cl)cc1Cl)N/N=C1\CCCc2ccccc21 | 2.52% |

| SMILES | hERG current change (%, negative = inhibition) at 10uM |
| --- | --- |
| Cc1ccc(/C=N/OC(=O)c2nn(C)cc2Cl)cc1 | 1.81% |
| Cc1cc(C)c2c(N)c(S(=O)(=O)Cc3ccccc3)sc2n1 | -33.3% |
| Cc1csc2nnc(N)n12 | 8.19% |
| CC(C)C(C(=O)Nc1ccncc1)c1ccc(Cl)cc1 (stereo not shown) | 8.32% |
| CCOc1ccc(NC(=O)CSc2ccc3nnc(-c4cccnc4)n3n2)cc1 | -54.7% |
| C=CCn1c(CCCOc2ccc(Cl)cc2Cl)n[nH]c1=S | 7.6% |
| CS(=O)(=O)n1nc(C(=O)N2CCOCC2)nc1N | 4.68% |
| O=C(CSc1ccccc1)NCCCc1ccccc1 | -4.52% |
| Cn1ccnc1CN1CCN(C(=O)c2cc(COc3ccc(F)c(F)c3)on2)CC1 | -32.9% |
| Cc1ccc2nc3n(c2c1)CCCN3 | -8.28% |
| CN(C)CCNC(=O)c1nn(C)c2c1CCc1ccccc1-2 | -12.4% |
| COc1ccc(C(=O)c2cn(-c3cccc(Br)c3)nc2C(C)=O)cc1 | 9.29% |
| Cc1ccc(C(=O)CC(=O)c2cc(Cl)ccc2O)cc1 | 8.83% |
| CCCNC(=O)c1ccc(-c2nn(C)c(=O)c3ccccc23)cc1 | 4.68% |
| CC1CCC2C(=O)N(c3ccccc3OC(=O)c3ccccc3)C(=O)C2C1 (stereo not shown) | 6.37% |
| CC1CC(C)CN(S(=O)(=O)c2cccc(C(=O)N3CCN(c4ccc(F)cc4)CC3)c2)C1 (stereo not shown) | -51.9% |
| CC1CCC(NC(=O)C2CC(=O)N(c3ccc(Cl)cc3)C2)CC1 (stereo not shown) | 13.8% |
| CC1CN(CC(=O)Nc2ccc([N+](=O)[O-])cc2Br)CC(C)O1 (stereo not shown) | -33% |
| O=C(c1ccc(Br)cc1)N1CCN(c2ncccn2)CC1 | -10.7% |
| O=C(O)c1cccnc1SCC(=O)N1CCCCCC1 | -2.09% |
| O=C(NCc1ccc2c(c1)OCO2)c1ccc(N2CCCC2=O)cc1 | 8.43% |
| Cc1ccc(C(=O)N(CCc2ccccc2)Cc2ccccc2)cc1S(=O)(=O)N1CCCCC1 | -14.9% |

| SMILES | hERG current change (%, negative = inhibition) at 10uM |
| --- | --- |
| Cc1cc(C(=O)CNCc2ccco2)c(C)n1-c1ccc(F)cc1 | -7.75% |
| CCn1c(SCC(=O)Nc2cc(C)on2)nnc1-c1ccc(S(=O)(=O)N2CCN(C)CC2)cc1 | -23.1% |
| O=C(Nc1ccccc1)c1cc2c(=O)c3ccccc3oc2nc1C(F)(F)F | 11.1% |
| Cc1cc(NC(=O)CN2C(=O)c3ccccc3C2=O)no1 | 11.4% |
| CCn1nc(C)c(/C=N/NC(=O)Cn2nccc2C)c1C | 2.17% |
| CCCCC(=O)OCc1cn(-c2ccc(Cl)cc2)nn1 | 0.689% |
| CN(C)/C=C/c1c(C#N)c(=O)ncn1Cc1ccccc1 | 15.9% |
| COc1cc(OC)c(NC(=O)c2ccoc2C)cc1Cl | 12.7% |
| CC(C)c1ccc(S(=O)(=O)c2cn(Cc3ccc(F)cc3)c3cc4c(cc3c2=O)OCO4)cc1 | -1% |
| COc1ccc(-c2cc(C(=O)N3CCN(c4ccccc4F)CC3)c3ccccc3n2)c(OC)c1 | 2.56% |
| O=C(Nc1ccc(Cl)cc1)Nc1nnc(SCc2ccccc2)s1 | 9.24% |
| O=C(NC1CC(=O)N(c2ccc(F)cc2)C1)N1CCN(C(=O)c2ccco2)CC1 (stereo not shown) | -63% |
| CC(=O)Nc1ccc(S(=O)(=O)NCC2CCC(C(=O)NCCCN(C)Cc3ccccc3)CC2)cc1 (stereo not shown) | 6.98% |
| CCN(CC)C(=O)NC1CC2CCCC(C1)N2Cc1ccccc1 (stereo not shown) | -6.25% |
| O=[N+]([O-])c1cc([N+](=O)[O-])c(Oc2cc(Cl)cc(Cl)c2)cc1NN1CCCCC1 | 18.4% |
| Cc1c[n+]([O-])cc(C)c1Oc1ccccc1 | 5.95% |
| CCCN(CC(=O)Nc1ccc(OC)c(OC)c1)CC(=O)Nc1ccc(F)c(F)c1F | -24.6% |
| CC(C)(CO)NC(=O)Nc1ccc(Cl)c(Cl)c1 | 19.4% |
| Cc1ccc(-c2cc(C(=O)Nc3cc(C)ccc3C)[nH]n2)c(O)c1 | 17.4% |
| CN(Cc1ccccc1)C(=S)Nc1cccnc1 | 9.05% |
| Cc1ccc(O)c(N/C=C/C(=O)c2ccc(F)cc2)c1 | 5.9% |
| CC(C)(C)C1=C(C#N)C(c2ccncc2)C(C#N)=C(N)O1 (stereo not shown) | -7.03% |

| SMILES | hERG current change (%, negative = inhibition) at 10uM |
| --- | --- |
| Cc1ccc(N2CCC(N3CCN(C4CCCCC4)C(CCO)C3)CC2)cc1 (stereo not shown) | -31.7% |
| COc1ccc(C(=O)NC2CCN(C(=O)NCc3ccccc3)CC2)cc1 | -5.45% |
| CCN(CC)CC.COc1ccccc1-n1c(=S)[nH]c2c(sc(=S)n2-c2ccccc2C)c1=O | 19.2% |
| COC(=O)c1nnn(CC(=O)Nc2ccc(C)c(F)c2)c1C(=O)OC | 10.4% |
| Cc1nn(-c2ccccc2)c(C)c1C(=O)OCC(=O)N1CCN(S(=O)(=O)c2ccccc2)CC1 | -11% |
| O=C1CC(C(=O)Nc2ccc(Cl)cc2[N+](=O)[O-])C2(CCCCC2)O1 (stereo not shown) | 5.12% |
| COCC(=O)N1CCC(Oc2ccc(C(=O)NC3Cc4ccccc4C3)cc2)CC1 | -3.57% |
| CC(=O)N1CCCc2cc(S(=O)(=O)NCc3ccc(C)cc3)ccc21 | -14.9% |
| COc1ccccc1Nc1nnc(SCc2nnc(-c3cc(OC)c(OC)c(OC)c3)o2)s1 | -21.7% |
| O=C(NCc1ccccc1)c1onc(CSc2ccc(F)cc2)c1C(=O)NCc1ccccc1 | 1.49% |
| CCSc1nnc(NC(=O)[C@@H](NC(=O)c2cccc(C)c2)C(C)C)s1 | -14.1% |
| O=C(c1cc(-c2ccccc2)on1)N1CCCC1 | 9.39% |
| C=CCN(C(=O)c1ccc2snnc2c1)c1ccccc1 | -9.13% |
| CC(C)C(c1nnnn1Cc1ccccc1)N(Cc1ccco1)Cc1cccs1 (stereo not shown) | 4.69% |
| CC(=O)Nc1ccc(/C=N/NC(=O)c2cccc(S(=O)(=O)N3CCOCC3)c2)cc1 | 28.2% |
| CCC(C)NC(=O)c1ccccc1NC(=O)CN(c1ccc(OC)cc1)S(C)(=O)=O (stereo not shown) | 1.59% |
| CC(C)Oc1ccc(S(=O)(=O)N2CCCCC2)cc1NC(=O)CC1OC(=O)c2ccccc21 (stereo not shown) | -13.8% |
| O=C(NCCN1CCOCC1)c1cccc(S(=O)(=O)N2CCCCC2)c1 | 12.9% |
| CCOc1ccc(OCC(O)CNC2CCN(Cc3ccccc3)CC2)cc1.O=C(O)C(=O)O (stereo not shown) | -62.8% |
| CCOC(=O)c1cc(C(C)(C)C)nc(SC)c1C#N | 16.2% |
| Cc1ccccc1-n1ncc2c1CC(C)(C)CC2NC(=O)CCN1Cc2ccccc2C1=O (stereo not shown) | -3.54% |
| Cc1ccc(Cl)c2sc(N3CCN(C(=O)c4ccco4)CC3)nc12 | -10.3% |

— PMC4336329 (PLoS ONE, 2015)
